Hit rate of the full screen: of about 48,000 compounds, about 120 (0.25%) were called active. Not shown: some 4% with an inconclusive outcome. Calls follow the shape of the dose curve; as a rule, active = well fitted activation curve with a large enough effect; inconclusive = small, poorly fitted or top-dose-only effect, or another doubt; inactive = no such curve, though single readings can be large or run the other way. The list shows a part of the results.
Experiment: Primary qHTS for Identification of Small Molecule Activators of Huntingtin-Antisense Promoter Activity; also: nearly all actives have a fitted effect of over 55% in size
Conditions: HEK293 HTT-AS promoter firefly luciferase reporter, 24 h; series mostly up to 57.5 µM; activity change, positive = activation: at the top concentration
Procedure, shortened: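 HEK293 Fluc reporter, 2,500 cells/well, 24 h pre-culture; cpds up to 57.5 uM final, 24 h 37 degrees C; Dual-Glo, 10 min RT; normalized vehicle = 0%, zero RLU = -100%.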

Activity change, positive = activation, inactive:
COc1ccc(CCNC(=O)CCn2c(=O)c3ccccc3n(CC(=O)Nc3ccc(C)cc3C)c2=O)cc1OC -7.07%
Cc1ccc(NC(c2ccc(Cl)cc2)c2nnc(-c3cccc(F)c3)o2)cc1C (stereo not given) 5.25%
COC(=O)c1ccc(NC(=O)CN2C(=O)c3cccc4cccc2c34)cc1 5.29% [at 11.5 µM, percent change from vehicle, -100% = no light]
COC(=O)CCNC(=O)N1CCN(c2nnc(C)c3c(C)n(-c4ccc(Cl)cc4)nc23)CC1 -1.13%
CCN(CCCNC(=O)c1cc(Nc2ccccc2OC)nc2ccccc12)c1cccc(C)c1 -24.9%
COc1ccc(OC)c(CCNC(=O)c2c3c(nc4ccccc24)C(=O)N(C2CCCCC2)C3)c1 -21.7%
COc1ccc(-c2noc(C3CC(=O)N(c4ccccc4)C3)n2)c(OC)c1 (stereo not given) 2.23%
O=C(CSc1nc2c([nH]c3ccccc32)c(=O)n1-c1ccc(Cl)cc1)N1CCCC1 -7.66%
O=S(=O)(NCC(Nc1ccc(Cl)cc1)c1ccccc1)c1ccccc1 (stereo not given) -22.9%
Cc1cc(C)cc(NC(=O)CSc2nnc(-c3cc4occc4n3C)n2-c2ccccc2C)c1 -7.88%
O=S(=O)(NCCc1csc2nc(-c3ccccc3)nn12)c1ccc(Cl)s1 -26.3%
COc1ccc2c(CNC3CCCCCC3)c(C(=O)O)n(Cc3cccc(F)c3)c2c1 -19.4%
CC(NC(CCc1ccccc1)C(=O)O)C(=O)N1C(=O)N(C)CC1C(=O)O (stereo not given) -5.15%
O=S(=O)(O)c1ccc2nc(-c3ccccc3)[nH]c2c1 -5.36%
CCN(CC)CCSc1nnc2c3cc(F)ccc3n(C)c2n1 -13.6%
COC(=O)c1ccc(OC)c(CN2C(=O)N(c3ccc(C(C)=O)cc3)S(=O)(=O)c3ccccc32)c1 -39.7%
CCOC(=O)c1c(C)[nH]c(CCC(=O)Nc2ccc(Cl)cc2C)c1C -15.3%
Cc1ccc(CNCc2c(C(=O)O)n(Cc3ccc(C)cc3)c3cc(C)ccc23)cc1 -57.7%
COc1ccc(-c2noc(CNS(=O)(=O)c3ccc(Br)cc3)n2)cc1OC -29.8%
Cc1ccc(-c2noc(CN(C(=O)COc3cc(C)cc(C)c3C)C(C)C)n2)cc1 -23.4%
Cn1c(=O)c2c(c3ccccc31)OC(=O)CC2c1cccc(F)c1 (stereo not given) 3.29%
O=C(Nc1ccc(Cl)cc1)N1CCN(c2ccc3nnc(-c4ccccc4)n3n2)CC1 -42.2%
CN(C)C(=O)Nc1ccc(Cl)c(Cl)c1 -1.09%
CCOc1ccc(NC(=O)c2cc3c(=O)n(Cc4cccs4)ccc3nc2C)cc1 -13.7%
O=C(C1CCC(Cn2c(=O)c3sccc3n(Cc3ccccc3F)c2=O)CC1)N1CCCCC1 (stereo not given) -16.3%

From PubChem BioAssay AID1508624 (National Center for Advancing Translational Sciences (NCATS), 2021)
